The record followed here is article PMC2838797.

By UniProt entry, the sequences of proteins in these tests, tags left out. Where a name states a change or a piece, a line headed by the entry shows the natural chain unless it says otherwise.
UniProt P40337: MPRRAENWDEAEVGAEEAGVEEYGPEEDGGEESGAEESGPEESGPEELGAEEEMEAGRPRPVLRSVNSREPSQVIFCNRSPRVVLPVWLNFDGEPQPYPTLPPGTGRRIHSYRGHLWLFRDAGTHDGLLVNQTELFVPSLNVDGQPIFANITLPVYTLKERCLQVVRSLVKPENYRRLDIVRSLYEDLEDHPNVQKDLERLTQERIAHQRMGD
UniProt P63279: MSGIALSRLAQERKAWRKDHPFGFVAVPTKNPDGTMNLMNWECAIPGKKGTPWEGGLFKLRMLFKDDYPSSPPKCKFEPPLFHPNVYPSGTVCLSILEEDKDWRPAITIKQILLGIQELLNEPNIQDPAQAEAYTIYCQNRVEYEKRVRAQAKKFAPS
UniProt O75928: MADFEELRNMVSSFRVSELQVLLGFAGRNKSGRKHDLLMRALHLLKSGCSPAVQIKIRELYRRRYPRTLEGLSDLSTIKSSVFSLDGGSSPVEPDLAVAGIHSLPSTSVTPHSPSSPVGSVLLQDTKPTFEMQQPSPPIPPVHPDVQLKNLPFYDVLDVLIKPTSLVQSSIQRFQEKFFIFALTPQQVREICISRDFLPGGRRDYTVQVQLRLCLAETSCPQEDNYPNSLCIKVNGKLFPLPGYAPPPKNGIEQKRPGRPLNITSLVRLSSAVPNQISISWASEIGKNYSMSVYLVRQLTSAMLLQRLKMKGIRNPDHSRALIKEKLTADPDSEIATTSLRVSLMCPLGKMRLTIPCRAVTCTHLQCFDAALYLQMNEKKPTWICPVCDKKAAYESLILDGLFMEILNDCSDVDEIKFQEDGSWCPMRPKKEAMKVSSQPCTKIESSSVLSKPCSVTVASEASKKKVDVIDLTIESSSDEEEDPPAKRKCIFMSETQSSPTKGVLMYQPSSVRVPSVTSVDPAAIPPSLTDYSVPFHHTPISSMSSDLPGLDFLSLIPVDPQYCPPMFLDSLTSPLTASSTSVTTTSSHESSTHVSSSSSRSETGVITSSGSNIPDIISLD
UniProt O75925: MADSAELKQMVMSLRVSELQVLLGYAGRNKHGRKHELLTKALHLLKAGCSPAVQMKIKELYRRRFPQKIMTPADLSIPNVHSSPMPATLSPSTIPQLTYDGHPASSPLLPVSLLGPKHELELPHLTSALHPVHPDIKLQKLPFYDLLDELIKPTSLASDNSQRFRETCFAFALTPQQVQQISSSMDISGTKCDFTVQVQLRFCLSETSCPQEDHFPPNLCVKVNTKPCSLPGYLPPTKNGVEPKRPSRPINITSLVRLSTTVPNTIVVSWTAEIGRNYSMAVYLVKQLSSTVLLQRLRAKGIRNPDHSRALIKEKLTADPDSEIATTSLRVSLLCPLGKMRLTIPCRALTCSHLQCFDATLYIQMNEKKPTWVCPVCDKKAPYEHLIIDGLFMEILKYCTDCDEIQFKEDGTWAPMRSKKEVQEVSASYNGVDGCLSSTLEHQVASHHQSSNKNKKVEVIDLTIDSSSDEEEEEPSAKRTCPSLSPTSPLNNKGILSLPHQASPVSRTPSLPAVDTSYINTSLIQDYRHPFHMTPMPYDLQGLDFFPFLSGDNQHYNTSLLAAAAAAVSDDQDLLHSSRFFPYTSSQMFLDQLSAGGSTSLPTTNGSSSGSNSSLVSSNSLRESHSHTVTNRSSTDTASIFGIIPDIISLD

Results are given in words; binding and its absence hold for the method and conditions named. For some of these results: In cells and extracts the contact can be indirect. Some entries that bind do so weakly or less than the wild type. For some of these results: Where a sequence is shown, tags or fusion partners need not be part of it.

Assay [1] deals with FLAG-VHL (wild type) (human) (UniProt P40337). Kind of assay: co-IP; data not shown; Ubc9 and VHL with or without PIASy.
The next assay has as its target FLAG-VHL (K171R) (human) (UniProt P40337). The experiment in a line: dimer-size band on immunoblot of whole cell lysate (oligomer assay); 786-O cells transfected, 48 hr, cell extracts immunoblotted with anti-FLAG; also with PIASy coexpression or PIASy knockdown (Figures 3A, 3B, 3D).
The next assay has as its target T1, GST-PIASy1-492 (human) (UniProt Q8N2W9).
T1 sequence: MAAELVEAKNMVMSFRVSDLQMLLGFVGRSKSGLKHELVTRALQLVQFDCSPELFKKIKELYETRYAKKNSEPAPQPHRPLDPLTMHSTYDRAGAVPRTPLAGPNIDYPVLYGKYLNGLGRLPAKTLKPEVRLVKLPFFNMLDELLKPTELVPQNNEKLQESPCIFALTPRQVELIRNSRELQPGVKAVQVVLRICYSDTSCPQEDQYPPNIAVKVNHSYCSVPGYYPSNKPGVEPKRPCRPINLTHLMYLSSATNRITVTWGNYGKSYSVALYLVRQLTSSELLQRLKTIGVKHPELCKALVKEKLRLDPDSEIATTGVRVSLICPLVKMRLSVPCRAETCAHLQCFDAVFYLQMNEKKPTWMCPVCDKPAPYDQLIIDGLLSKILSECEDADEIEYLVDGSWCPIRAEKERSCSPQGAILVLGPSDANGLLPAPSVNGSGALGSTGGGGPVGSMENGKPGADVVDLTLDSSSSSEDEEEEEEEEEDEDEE
The experiment in a line: pull-down; GST-PIASy on glutathione sepharose beads, 35S-labeled in vitro-translated proteins, 4 hrs at 4°C, 50 mM Tris-HCl pH 7.5, 100 mM NaCl, 10 µM ZnCl2, 10% glycerol, 0.1 mM DTT; autoradiography (Figures 4B, S3); only the target purified.

The target of assay [2] is HA-VHL (wild type von Hippel Lindau tumor suppressor with HA tag) (human) (UniProt P40337). Kind of assay: co-IP; HEK293 cells cotransfected, harvested 48 h posttransfection; RIPA lysates, IP and immunoblotting as indicated (Figures 2A, 2E, 4A).
Assay [3] has as its target T2, FLAG-PIASy (full length PIASy) (human) (UniProt Q8N2W9).
T2 sequence: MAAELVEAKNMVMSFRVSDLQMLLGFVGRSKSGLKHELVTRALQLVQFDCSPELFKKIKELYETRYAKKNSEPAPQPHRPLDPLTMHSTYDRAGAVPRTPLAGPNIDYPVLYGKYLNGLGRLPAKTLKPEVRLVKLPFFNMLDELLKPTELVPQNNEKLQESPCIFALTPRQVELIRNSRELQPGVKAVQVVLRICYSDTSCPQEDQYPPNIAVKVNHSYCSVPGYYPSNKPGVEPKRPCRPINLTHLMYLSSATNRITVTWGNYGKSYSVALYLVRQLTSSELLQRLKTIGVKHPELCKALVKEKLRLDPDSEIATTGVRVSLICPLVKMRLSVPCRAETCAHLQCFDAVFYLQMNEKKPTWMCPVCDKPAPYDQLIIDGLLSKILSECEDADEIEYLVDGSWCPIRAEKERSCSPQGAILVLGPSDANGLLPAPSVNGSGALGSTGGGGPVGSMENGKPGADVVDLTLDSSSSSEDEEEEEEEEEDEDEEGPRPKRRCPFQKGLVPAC
The experiment in a line: co-IP; cells coexpressing FLAG-PIASy and HA-VHL truncated mutants (HEK293 in the text, 786-O in the legend); VHL precipitated by PIASy (Figure 4D).

Another assay addresses FLAG-VHL (K196R) (human) (UniProt P40337). The experiment in a line: dimer-size band on immunoblot of whole cell lysate (oligomer assay); 786-O cells transfected, 48 hr, cell extracts immunoblotted with anti-FLAG; also with PIASy coexpression or PIASy knockdown (Figures 3A, 3B, 3D).

In the case of “HA-Ubc9 (from UniProt P63279 1-158) (enzyme)”, the binding result in assay [1] was “binds”.
Turning to “FLAG-VHL (K171R) (from UniProt P40337 1-213)”, the binding entry with FLAG-VHL (K171R) (human) is listed as “no binding”.
Take “HA-VHL 54-190, in vitro translated, 35S-labeled (from UniProt P40337 54-190) (domain or fragment)”: the binding entry in the assay with GST-PIASy1-492 (human) was “binds”.
Turning to “FLAG-PIASx (from UniProt O75928 1-621) (enzyme)”, the binding result in assay [2] was “no binding”.
For “HA-VHL 54-120, in vitro translated, 35S-labeled (from UniProt P40337 54-120) (domain or fragment)”, in the assay with GST-PIASy1-492 (human), the binding result is on record as “binds”.
On to “wild type HA-VHL, in vitro translated, 35S-labeled (from UniProt P40337 1-213)”, for which the binding entry in the assay with GST-PIASy1-492 (human) is given as “binds”.
As to “HA-VHL Δ1-53, in vitro translated, 35S-labeled (from UniProt P40337 54-213) (domain or fragment)”, the binding entry in the assay with GST-PIASy1-492 (human) was “binds”.
As to “FLAG-PIAS1 (from UniProt O75925 1-651) (enzyme)”, in assay [2], the binding entry is given as “no binding”.
In the case of “VHL, in vitro-translated, radiolabeled (wild type) (from UniProt P40337 1-213)”, in the assay with GST-PIASy1-492 (human), the binding result is “binds”.
For the substance “HA-VHL Δ1-53 (from UniProt P40337-1 54-213) (domain or fragment)”, in assay [3], the binding entry is listed as “no binding”.
Take “FLAG-VHL (K196R) (from UniProt P40337 1-213)”: the binding result with FLAG-VHL (K196R) (human) is on record as “no binding”.
On to “HA-VHL 54-151, in vitro translated, 35S-labeled (from UniProt P40337 54-151) (domain or fragment)”, for which the binding result with GST-PIASy1-492 (human) is “binds”.
Consider “HA-VHL (wild type von Hippel Lindau tumor suppressor with HA tag) (from UniProt P40337 1-213)”, for which the binding result in assay [3] was “binds”.
